{
  "source": "PubChem BioAssay AID686978",
  "about": "(National Center for Advancing Translational Sciences (NCATS), 2013)",
  "note": "Hit rate of the full screen: of about 420,000 compounds, about 64,000 (15%) were called active. Inconclusive results, whose numbers are uncertain, are shown with a selection of clear calls. The call rests on the fitted dose curve; in most records, active means well fitted inhibition curve with a large enough effect; inconclusive means small, poorly fitted or top-dose-only effect; inactive means flat fitted curve, though single readings scatter. Potencies of inconclusive entries are left out as doubtful fits. On the % scale 0 is the no-effect control and ±100 the full control effect; potency means the concentration at half of the fitted maximal effect; tags describe the fitted curve by direction and shape.",
  "data": [
    {"test": "qHTS for Inhibitors of human tyrosyl-DNA phosphodiesterase 1 (TDP1): qHTS in cells in absence of CPT; further: nearly all actives have a fitted effect of over 55% in size", "conditions": "DT40 Tdp1-/- hTDP1 cells, no CPT, ATP luminescence, 48 h; activity change, negative = growth inhibition: at 46.2 µM (top of the series) unless noted", "in_short": "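Cells were dispensed at 400 per well, compounds added by pin tool, plates incubated ≥48 hr at 37 °C, then CellTiter-Glo added for 30 min at room temperature before luminescence reading. Line: DT40 Tdp1-/- complemented with hTDP1; camptothecin omitted.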", "values": [
      {"smiles": "CC(=O)c1c(C)[nH]c(C(=O)Nc2cccc(S(=O)(=O)N3CCCC3)c2)c1C", "Potency": "inconclusive [inhibitor, single point]"},
      {"smiles": "O=C(CC1OC(=O)c2ccccc21)Nc1cccc(S(=O)(=O)N2CCCCCC2)c1", "note": "(stereo not drawn)", "Potency": "inconclusive [inhibitor, single point]"},
      {"smiles": "COc1ccc(C/C(O)=C(\\C#N)c2nc3ccccc3s2)cc1", "Potency": "inconclusive [inhibitor, partial curve]"},
      {"smiles": "CC(NC(=O)COC(=O)c1cccnc1Cl)C12CC3CC(CC(C3)C1)C2", "note": "(stereo not drawn)", "Potency": "inconclusive [inhibitor, single point]"},
      {"smiles": "Clc1ccc2[nH]c3c(c2c1)CNCC3", "Potency": "inconclusive [inhibitor, single point]"},
      {"smiles": "Cc1ccc(NC(=O)CCNS(=O)(=O)c2ccc(Br)cc2)cc1S(=O)(=O)N1CCOCC1", "activity change, negative = growth inhibition": "inactive: -25%"},
      {"smiles": "CCOc1cc(CNCCCN2CCOCC2)cc(Cl)c1OCC(=O)NC(C)(C)C", "Potency": "inconclusive [inhibitor, single point]"},
      {"smiles": "NC(=O)CNC(=O)[C@@H]1CC2(CC(c3cccc(Br)c3)=NO2)CN1C(=O)c1ccc(Br)cc1", "note": "(stereo partly drawn)", "Potency": "inconclusive [inhibitor, single point]"},
      {"smiles": "COc1cccc(Cn2c(=O)c(C)nc3cnc(OC)nc32)c1", "activity change, negative = growth inhibition": "inactive: -12.2%"},
      {"smiles": "CCCOc1ccc(NC(=O)C2CC(=O)N/C(=N/N=C(C)/C=C/c3ccc(N(C)C)cc3)S2)cc1", "note": "(stereo not drawn)", "Potency": "inconclusive [inhibitor, partial curve]"},
      {"smiles": "Cc1ccc(NC(=O)C2c3ccccc3Oc3ccccc32)c(C)c1", "activity change, negative = growth inhibition": "inactive: 0.764%"},
      {"smiles": "CC(C)(C)c1ccc(CC(=O)N2CCC2(C)C(=O)Nc2cccc3c2CCCC3)cc1", "note": "(stereo not drawn)", "Potency": "inconclusive [inhibitor, single point]"},
      {"smiles": "O=C(COC(=O)COc1cccc(C(F)(F)F)c1)NC(=O)NC1CCCCC1", "Potency": "inconclusive [inhibitor, partial curve]"},
      {"smiles": "COc1ccc(OC)c(S(=O)(=O)Nc2ccc(Oc3ccccc3)cc2)c1", "Potency": "inconclusive [inhibitor, single point]"},
      {"smiles": "CC(=O)Nc1ccc(C(=O)/C=C/c2ccco2)cc1", "Potency": "inconclusive [inhibitor, single point]"},
      {"smiles": "C=C(C)c1cccc(C(C)(C)NC(=O)Nc2cc(C)ccn2)c1", "Potency": "inconclusive [inhibitor, single point]"},
      {"smiles": "NC(=O)C1CCN(C(=O)c2ccc(F)c(S(=O)(=O)N3CCOCC3)c2)CC1", "activity change, negative = growth inhibition": "inactive: 0.837%"},
      {"smiles": "CCC1=C(c2ccc(C)cc2)S(=O)(=O)N=C1N1CCC(C(=O)NCc2ccccc2Cl)CC1", "Potency": "inconclusive [inhibitor, single point]"}
    ]}
  ]
}
